The source of these data is the RNAGym collection of RNA variant scans (doi:10.7554/elife.90254).

The source gives no read counts; variants with many changes may rest on few reads.

B1: OR4K15 (parent)
chain: GUUAACGGUCAUAGGCCAUGGAAACUAGGAGCACCAUUUCGCUGCCAGUGAAGAAAUGAACAAAGAAAAUCUGGGCCAGGCAGGCAUCAAAAGAAAUAGUCUUGCGCUCAACCAGAAAGUCUGUAAUCAUUUUAAGGGUA

The variants in this data set derive from B1. Description: self-cleavage, relative activity (ratio to wild type); higher = more cleavage; in vitro, sequencing; the parent is a self-cleaving ribozyme.
With G7A U43C A47G U57G A90G, the self-cleavage was found to be 0.73.
As for G7A A22G A86G A90G U130C, the figure is 0.14.
As for G8C U9C A64G, the self-cleavage was determined as 1.77.
For U9A U39C A68G A69U A78G the value was 0.34.
For A5G G20A U72A A78G the value was 0.48; for A5G U19C G20A A78G U120C, 0.28.
With A5G U49C A60G A69G A118G, the self-cleavage was 0.15.
As for U9A A78G A92G, the figure is 0.26.
In the case of G7A A33G C42U A47U A94G, the self-cleavage came to 0.58.
As for A5U A60U A89G A114G, the figure is 0.43; as for G8A A33G U103C A117U U120A, 0.61; as for U9A A33G A47G U49C, 0.36.
For A5G U43A A52G U102A the value was 0.3; for G8U G29U A117G, 2.01.
For A5U A60G A68G A95G A126G the value was 1.02; for A5U A13U A54G A110G, 0.44.
For A5G G31A U122C, the self-cleavage amounted to 0.26.
As for G7U A62G A64G, the figure is 0.99.
For G7U C40A A67G G115A A118G U122A the value was 0.01.
For U9A U19C A22G A23G A59U A95G A110G the value was 0.12; for U9C A22U U49G A126G, 1.05.
In the case of A5U U102C U127C, the self-cleavage turned out to be 1.58.
With G8A A54G U108C, the self-cleavage is 0.01.
As for G7A A51G A67G A82U A111G, the figure is 0.02.
Regarding G7U A64G A111G, the self-cleavage came out at 0.03.
For A5G U57C G104U the value was 0.11; for G8A G84A U87A, 2.54; for A5G U19A G44A, 1.36.
Turning to U9A A68G U72A A90G U130C, the self-cleavage was 0.06.
As for A5G U38C A60G, the figure is 0.7.
As for A5G U49C A63U U100A, the figure is 0.37; as for A5U A86G A125G, 0.36.
For A5U G8A A24G A54U A62G U103C, the self-cleavage is 0.55.
As for C6U A91G A94G, the self-cleavage was found to be 1.13.
On to C6U U72C U108A, for which the self-cleavage came out at 0.04.
With C6U A11G U43C A68G, the self-cleavage came to 0.79.
As for U9A A118G A126G, the figure is 0.44; as for A5G U49C U87A, 0.69; as for A5U U57C U133A, 0.69.
As for C6U A52U A62G A66G, the figure is 0.89.
For U9A A60G A114G the value was 0.22.
U9A A36U A64U A91U A126G: the self-cleavage worked out at 1.58.
For U9C A11U A18G U26C U87C A135G the value was 0.54; for G7A U49A A56G A94G, 0.53.
Regarding U9A U12C A66U A68G A95G, the self-cleavage was found to be 0.84.
As for G7A A125G U131C, the figure is 0.42.
In the case of U9A A23G A27G U39A A94U, the self-cleavage was 0.94.
For A5U A51G A60G the value was 0.93; for G7U U12A A23G A24G A33G C40U A82G, 0.46.
In the case of U9A U19C A24G A116G, the self-cleavage was 0.64.
For G8C U9C A56G A91U U132C the value was 1.72; for A5G U49C U87C A94G, 1.32.
As for C6U A62G U100A U103C G137A, the figure is 0.14.
For C6U A59C G115A the value was 0.07; for G7C A24G A91G A94G A114U U122C, 0.
As for A5U A66C A98U, the self-cleavage is 0.62.
As for U9A U12C A135U, the self-cleavage is 1.98.
As for U9C A11G A30G A33G A67G A68G U102C, the self-cleavage worked out at 1.2.
As for C6U A69G A135G, the figure is 0.87.
As for A5U A22G A30G U132A, the figure is 0.43; as for C6U A47U U70A, 0.47; as for U9A C40A A96G, 1.15.
Consider G8C A55G A60G, for which the self-cleavage is 1.74.
For G7A A51U U70C U122C the value was 1.2; for U9A A24C A111G, 0.06.
Consider A5G U9C A18G A116C U130C, for which the self-cleavage was found to be 0.14.
On to G7A A118G U139C, for which the self-cleavage is 2.58.
For A5U A13U A67G the value was 1.25; for G7A U39A A68G A86G A110G, 0.15.
As for A5U G73A U127C, the figure is 0.22.
As for U9A A30U U108C, the figure is 0.03.
Regarding A5U A23G A90G A118G, the self-cleavage amounted to 0.5.
As for A5G U38C U131C, the figure is 1; as for A5U A60G U103C, 0.9.
With A5U G7A A24G U43C A56G G84A, the self-cleavage amounted to 1.32.
As for A5G U38C A78U, the figure is 0.15; as for U9C A22U U100C, 2.36.
Take A5U A47U A69G A82U: the self-cleavage was determined as 0.25.
For G8A A27G A82G the value was 0.19; for G8A A33G A64U U72A, 0.21.
As for A5G U19C A92U U100C A140G, the figure is 2.78.
For G7A U9G A27G A30G A69U the value was 0.63; for G8A A30G A54G A62G A67G A94U A95G U108C, 0.05.
